According to ChEMBL document CHEMBL4888484, “Replenishing the malaria drug discovery pipeline: Screening and hit evaluation of the MMV Hit Generation Library 1 (HGL1) against asexual blood stage Plasmodium falciparum ,using a nano luciferase reporter read-out” (2022):
About 540 (0.36%) of roughly 150,000 compounds showed an effect of 50% or more. This is one part of the list.

These molecules were tested on Plasmodium falciparum (assay: Primary screen in NF54 nanoGlo assay, in single point, at 2uM, 72h; a lower Z score goes with more inhibition). Conditions: timepoint 72 hour.
Assay type: functional, Erythrocyte

Row | Compound | % Inhibition [%] | Z score
1 | COc1ccc(C(=O)N(CC(=O)N(CCc2ccccc2)Cc2ccco2)CC(C)C)cc1 | -13 | 1.72
2 | CNC(=O)C1CCCCC1NC(=O)C(F)(F)c1ccc(OC)cc1 (stereo not given) | -5 | 0.53
3 | COCCCNC(=O)NC1CC(C)N(C2CC2)C1 (stereo not given) | -5 | 0.72
4 | O=C(Cc1ccc(Cl)cc1)N1CCc2n[nH]c(=O)n2CC1 | -5 | 0.87
5 | CCCn1c(=O)n(CCC(=O)N(C)[C@@H](C(=O)OC)c2cc(F)ccc2F)c2ccccc21 | 2 | -0.28
6 | Cc1ccc(Cl)cc1N1CCN(C(=O)c2ccc3c(c2)NC(=O)[C@@H]2CCCCN32)CC1 | -6 | 0.82
7 | CC1CCN(C[C@H]2CCCN(Cc3nc4ccccc4o3)C2)CC1 | 0 | 0.06
8 | COc1ccc(Cl)cc1-c1ccnc(O)c1 | -7 | 1.19
9 | O=C(Cn1cnnn1)NCCC1CC2CCC1C2 (stereo not given) | 4 | -0.59
10 | CCCNC(=O)[C@H](C)NC(=O)c1cccc(Cl)c1 | 1 | -0.14
11 | Cc1c([C@H](C)NC(=O)c2ccccn2)cnn1C | 25 | -2.82
12 | Cc1cnccc1CN(C)C(=O)c1c[nH]c(=O)[nH]c1=O | 1 | -0.08
13 | COc1ccc(COC(=O)c2ccncc2)cn1 | -14 | 2.24
14 | CC(C)Cc1cc(C(=O)N2CC[C@@H]3OCc4cnnn4[C@H]3C2)no1 | 0 | -0.05
15 | O=C(c1cccc(S(=O)(=O)N2CCCCC2)c1)N1CCC[C@H](c2nc3ccccc3s2)C1 | -3 | 0.47
16 | CCc1nc2c(N3CCC[C@]4(CCC(=O)N(C(C)C)C4)C3)ncnc2o1 | -4 | 0.82
17 | Cc1cc(Cl)ccc1O[C@@H](C)c1ncnn1CCCO | 1 | -0.17
18 | N[C@H]1CCCN(C(=O)Nc2ccc(F)c(Cl)c2)CC1 | -6 | 0.84
19 | Cc1nc([C@H]2CCS(=O)(=O)C2)n(-c2cc(S(N)(=O)=O)ccc2F)n1 | 2 | -0.46
20 | C=C(C)C(=O)Nc1ccc(Cc2ccc(NC(=O)C(=C)C)c(O)c2)cc1O | 0 | -0.04
21 | COc1ccc(OC[C@@H](O)CN2CCC(O)CC2)c(CN(C)Cc2csc(C)n2)c1 | -18 | 2.05
22 | Cc1cc(CCC(=O)N(C)[C@@H]2COC[C@H]2O)c(C)s1 | -2 | 0.25
23 | Cn1nc(C(F)F)c2cc(C(=O)N3CCn4ncnc4C3)sc21 | 4 | -0.5
24 | O=C(c1nnn2c1CO[C@H](c1ccccc1)C2)N1CCOCC1 | -1 | 0.16
25 | Brc1ccc(C2(c3nnc(CC4CCCCC4)o3)CCOCC2)cc1 | -1 | 0.12
26 | Cc1ncc(CN2CC[C@@]3(CCCN(Cc4cccc(F)c4F)C3=O)C2)n1C | -6 | 0.77
27 | CCCOc1ccc(CNC(=O)c2cc(COC(C)(C)C)on2)c(C)c1 | -8 | 1.21
28 | CC(=O)N(Cc1cccnc1)[C@H]1CCCN(Cc2cc(C)nn2C)C1 | -2 | 0.16

Row | Compound | % Inhibition [%] | Z score
29 | CCc1ncc(CN(C)Cc2ccccc2CN(C)C)cn1 | -11 | 1.2
30 | O=C(C1CCCC1)N1CC[C@H](Cc2noc(-c3ccncc3)n2)C1 | -7 | 0.83
31 | Cc1cc2ccccc2cc1CN1CCOCC1 | -4 | 0.8
32 | CC1Cc2ccccc2N1C(=O)C1CC2CCCC(C1)C2=O (stereo not given) | 12 | -1.42
33 | Cc1ccc(CNC(=O)N(C)CC2(O)CCOCC2)s1 | -22 | 2.93
34 | O=C1[C@@H]2Cc3c([nH]c4ccccc34)C(CCc3ccccc3)N2C(=O)CN1CCN1CCOCC1 (stereo not given in full) | -18 | 2.72
35 | O=C(NCCc1csc(-c2ncccn2)n1)[C@@H]1NCCc2[nH]cnc21 | 2 | -0.18
36 | CC(=O)c1cn([C@@H](C)C(=O)NCCN2CCNC2=O)c2ccccc12 | -12 | 1.07
37 | Cc1ncnc(N2CC[C@H](c3ccccc3F)C2)c1C | -15 | 2.2
38 | O=C(N[C@H]1CCn2nccc2C1)c1ccccc1Br | -10 | 1.62
39 | CC(C)c1nsc(N2CC3CCCC3C2)n1 (stereo not given) | -5 | 0.71
40 | CC(C)c1cc(C(=O)N2CCC[C@H](S(=O)(=O)N3CCOCC3)C2)nn1C | -9 | 1.15
41 | CC(C)Cc1ncc(C(=O)NCc2ncccc2O)s1 | 0 | -0.01
42 | COc1nc2ccn(CCn3nc(C)nc3C)c(=O)c2cc1C#N | -15 | 1.69
43 | Cc1cc(C)cc(C(=O)N2CCCC[C@H]2C(=O)N2CCS(=O)(=O)CC2)c1 | -3 | 0.64
44 | Cn1nc(C(=O)N2CCO[C@H](C(C)(C)C)C2)cc1O | 5 | -0.51
45 | Cc1n[nH]c(C)c1C(C)C(=O)N(C)CC(C)c1ccccc1 (stereo not given) | -7 | 1.07
46 | CCC(C)N1CCC(F)(F)C(CO)C1 (stereo not given) | -7 | 0.85
47 | CC(C(=O)C(C#N)c1ccccn1)c1c(Cl)cccc1Cl (stereo not given) | 3 | -0.44
48 | CN(C)[C@H]1[C@@H]2CC[C@H]1CN(C(=O)Nc1cc(F)c(C(F)(F)F)cc1F)C2 | -4 | 0.7
49 | CCOC(=O)CNC(=O)c1cc(-c2ccc[nH]2)n[nH]1 | -4 | 0.48
50 | CC(C)Cc1nc(CN(C)S(=O)(=O)N2CCCC2)no1 | 6 | -0.98
51 | Cc1ccccc1OCC(=O)NCc1nc(-c2cc[nH]c(=O)c2)no1 | -12 | 2.07
52 | COc1ccc(NC(=O)C(=O)c2ccc[nH]2)cc1Cl | 1 | -0.09
53 | Cc1nn(C)c(C)c1CNc1cccc(C(=O)NCc2ccccn2)c1 | -10 | 1.37
54 | CC1CCN(C(=O)[C@@H]2CCCCc3nnc(-c4ccccc4)n32)CC1 | -8 | 1.24
55 | NC(=O)C[C@H](c1cn(Cc2ccccc2)c2ccccc12)C1CCCCC1 | -14 | 2.65
